Drawing on ChEMBL document CHEMBL4346670, “Discovery of Novel Janus Kinase (JAK) and Histone Deacetylase (HDAC) Dual Inhibitors for the Treatment of Hematological Malignancies” (J Med Chem, 2019), this text covers inhibition, bioavailability and Cmax for 1 compound.

Active and inactive are the calls of the source. The rule behind the calls is not given here.

The target of series [1] is Proto-oncogene tyrosine-protein kinase receptor Ret (Homo sapiens) (UniProt P07949). The series is described as follows: Inhibition of recombinant human RET at 20 nM using biotinyl-beta amyloid-beta amyloid-beta AAEEEEYFELVAKKK as substrate after 30 mins by HTRF method relative to control. Background: TR-FRET usually uses a lanthanide donor and a delayed reading to cut background.

Series [2] addresses Histone deacetylase (Homo sapiens) (UniProt Q13547+O15379+Q9UBN7+Q92769+Q9UQL6+Q8WUI4+Q9BY41+Q96DB2+P56524+Q9UKV0+Q969S8). As to the kind of experiment: Inhibition of HDAC in human MDA-MB-231 cells assessed as increase in acetyl histone H3 level at 5 to 10 uM after 12 hrs by Western blot analysis. It is filed as cell-based. In short, it runs like this: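 MDA-MB-231 cells treated with compound or DMSO for 12 h, then lysed in SDS buffer and cleared by centrifugation. Lysate resolved by SDS-PAGE and transferred to nitrocellulose. Immunoblotted for p-STAT3 (Tyr705), total STAT3, acetyl-α-tubulin and acetyl-histone H3, with GAPDH as loading control. Detection by enhanced chemiluminescence.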
Background: In western blotting, separated proteins are transferred to a membrane and probed.

For series [3], the target named is Serine/threonine-protein kinase BRSK1 (Homo sapiens) (UniProt Q8TDC3). As to the kind of experiment: Inhibition of recombinant human BRSK1 at 20 nM using CREBtide as substrate measured after 90 mins by LANCE assay relative to control. In short, it runs like this: (§1)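 Single-concentration screen within an 85-kinase panel run by a contract lab, with each compound tested at 20 nM and 200 nM. Human recombinant enzymes were used. Activity was quantified as phosphorylation of a peptide substrate read by LANCE time-resolved detection, and inhibition was expressed relative to control, using the same format as the JAK assay.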

For series [4], the target named is Serine/threonine-protein kinase Nek2 (Homo sapiens) (UniProt P51955). As to the kind of experiment: Inhibition of recombinant human NEK2 at 20 nM using Ulight-FLGFTYVAP as substrate measured after 60 mins by LANCE method relative to control. In short, it runs like this:
(§2)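 Part of an 85-kinase selectivity panel run by a contract lab, with the test compound at 20 nM and at 200 nM. Each human recombinant kinase's phosphorylation of its peptide substrate was measured following the JAK assay method. Activity is given as percent inhibition.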

The target of series [5] is Non-receptor tyrosine-protein kinase TYK2 (Homo sapiens, UniProt P29597). The series is described as follows: Inhibition of recombinant human TYK2 at 200 nM using Ulight-CAGAGAIETDKEYYTVKD as substrate measured after 60 mins by LANCE method relative to control.
Series [6] concerns the target Mitogen-activated protein kinase 3 (Homo sapiens) (UniProt P27361). As to the kind of experiment: Inhibition of recombinant human ERK1 at 200 nM using Ulight-CFFKNIVTPRTPPPSQGK-amide as substrate measured after 30 mins by LANCE method relative to control. In short, it runs like this:
as §1

Series [7] deals with Protein-tyrosine kinase 6 (Homo sapiens) (UniProt Q13882). The series is described as follows: Inhibition of recombinant human BRK at 200 nM using Ulight-TK peptide as substrate measured after 90 mins by LANCE assay relative to control. In short, it runs like this:
as §1

Series [8] concerns the target Mitogen-activated protein kinase 8 (Homo sapiens) (UniProt P45983). As to the kind of experiment: Inhibition of recombinant human JNK1 at 20 nM using Ulight-CFFKNIVTPRTPPPSQGK-amide as substrate measured after 60 mins by LANCE method relative to control. In short, it runs like this:
as §2

For series [9], the target named is Tyrosine-protein kinase Yes (Homo sapiens) (UniProt P07947). As to the kind of experiment: Inhibition of recombinant human YES at 20 nM using biotinyl-beta amyloid-beta amyloid-beta AYQAEENTYDEYEN as substrate after 30 mins by LANCE method relative to control.
The species named for another series is Homo sapiens. As to the kind of experiment: Inhibition of recombinant human AMPKalpha at 20 nM using ULight-CREB as substrate measured after 30 mins by LANCE assay relative to control. The procedure, abridged:
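Part of an 85-kinase selectivity panel run by a contract lab. The test compound was screened at 20 nM and 200 nM against human recombinant kinases. Activity was quantified as phosphorylation of a ULight-labelled peptide substrate, read by LANCE detection. Percent inhibition was taken relative to control. The method is the same one used for JAKs.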

Series [10] in a line: Bioavailability in CD1(ICR) mouse at 1 mg/kg, ip by LC-MS/MS analysis. The conditions noted are these: in vivo. In kind it is ADME, organism-based. The procedure, abridged:
(§3)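 Male ICR (CD-1) mice dosed IP or IV, vehicle 10% DMSO, 40% PEG400, 50% water. Blood taken from the jugular vein at set time points and held on ice. Plasma separated by centrifugation, stored at -80 °C, and analysed by LC-MS/MS.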

Series [11] has as its target Eukaryotic translation initiation factor 2-alpha kinase 3 (Homo sapiens) (UniProt Q9NZJ5). As to the kind of experiment: Inhibition of recombinant human PEK at 200 nM using Ulight-FLGFTYVAP as substrate measured after 60 mins by LANCE method relative to control.
Series [12] addresses Calcium/calmodulin-dependent protein kinase type 1 (Homo sapiens) (UniProt Q14012). The series is described as follows: Inhibition of recombinant human CAMK1alpha at 200 nM using CREBtide as substrate measured after 30 mins by LANCE assay relative to control. The procedure, abridged: as §1
Series [13] in a line: Cmax in CD1(ICR) mouse at 1 mg/kg, ip by LC-MS/MS analysis. It is filed as ADME, organism-based. Further details: dose 1 mg/kg, route intraperitoneal. The conditions noted are these: in vivo. The procedure, abridged: as §3
The target of series [14] is Platelet-derived growth factor receptor beta (Homo sapiens) (UniProt P09619). The series is described as follows: Inhibition of recombinant human PDGFRbeta at 200 nM using Ulight-Poly GAT[EAY(1:1:1)] as substrate measured after 30 mins by LANCE method relative to control.
In series [15] the target is Protein-tyrosine kinase 6 (Homo sapiens) (UniProt Q13882). As to the kind of experiment: Inhibition of recombinant human BRK at 20 nM using Ulight-TK peptide as substrate measured after 90 mins by LANCE assay relative to control. The procedure, abridged:
as §1

Series [16] has as its target Tyrosine-protein kinase SYK (Homo sapiens) (UniProt P43405). The series is described as follows: Inhibition of recombinant human SYK at 200 nM using Ulight-CAGAGAIETDKEYYTVKD as substrate measured after 30 mins by LANCE assay.
In series [17] the target is Discoidin domain-containing receptor 2 (Homo sapiens) (UniProt Q16832). The series is described as follows: Inhibition of recombinant human DDR2 at 200 nM using Ulight-Poly GAT[EAY(1:1:1)] as substrate measured after 10 mins by LANCE method relative to control. In short, it runs like this: as §1
The target of series [18] is Tyrosine-protein kinase Lck (Homo sapiens) (UniProt P06239). As to the kind of experiment: Inhibition of recombinant human LCK at 20 nM using Ulight-Poly GAT[EAY(1:1:1)] as substrate measured after 10 mins by LANCE method relative to control. In short, it runs like this:
as §2

Series [19] concerns the target Vascular endothelial growth factor receptor 2 (Homo sapiens) (UniProt P35968). The series is described as follows: Inhibition of recombinant human VEGFR2 at 20 nM using Ulight-CAGAGAIETDKEYYTVKD as substrate measured after 60 mins by LANCE method relative to control.
The target in series [20] is 3-phosphoinositide-dependent protein kinase 1 (Homo sapiens) (UniProt O15530). As to the kind of experiment: Inhibition of recombinant human PDK1 at 20 nM using Ulight-FLGFTYVAP as substrate measured after 90 mins by LANCE method relative to control.
Series [21] deals with Activin receptor type-1B (Homo sapiens) (UniProt P36896). The series is described as follows: Inhibition of recombinant human ALK4 at 200 nM using Ulight-DNA topoisomerase 2alpha as substrate measured after 30 mins by LANCE assay relative to control. In short, it runs like this: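 Human recombinant kinases tested at 20 nM and 200 nM compound in an outsourced panel of 85 kinases. Activity measured as phosphorylation of a ULight-labelled substrate by LANCE detection, expressed as inhibition relative to control.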

For orientation: inhibition means the drop in the measured response relative to a control, in per cent. Usually Cmax stands for the maximum level reached in the sampled fluid or tissue. Turning to `O=C(CCCCCn1cc(Nc2ncc(Cl)c(Nc3ccc(Cl)cc3)n2)cn1)NO`, the inhibition came out at 92% in [1]; 3% in series [3]; 4% in series [4]; 68% in series [5]; 0% in series [6]; 14% in [7]. Further, the inhibition was determined as 8% in series [8]; 18% in series [9]; 6% in the series listed under Homo sapiens; 13% in [11]; 8% in series [12]; 55% in [14]. Also, the inhibition amounted to 19% in series [15]; 66% in series [16]; 11% in series [17]; 1% in [18]; 65% in series [19]; 5% in [20]. Also, the inhibition in series [21] was 27%. The inhibition entry in series [2] was “Active”. In addition, the bioavailability in series [10] stood at 116%. In [13], this compound gave a Cmax of 118 ng/mL.
